The record followed here is PubChem BioAssay AID1346428 (National Center for Advancing Translational Sciences (NCATS), 2018).

“And” between values parts separate entries of the source, which are not always exact repeats. Identical values can stand only once. Hit rate of the full screen: of about 48,000 compounds, about 1,200 (2.5%) were called active. Roughly 2% stayed inconclusive and do not appear here.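 The calls were made as follows: active = activation of at least 60% and not above a set upper limit (about 1 call in 100 departs from these limits); inconclusive = activation of 40% to 60%, or above that upper limit; inactive = activation under 40%.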 The list shows a part of the results. More than one record can exist for a structure, and the calls need not agree.

Sequence of UniProt O75388 (O75388 whole entry, looked up): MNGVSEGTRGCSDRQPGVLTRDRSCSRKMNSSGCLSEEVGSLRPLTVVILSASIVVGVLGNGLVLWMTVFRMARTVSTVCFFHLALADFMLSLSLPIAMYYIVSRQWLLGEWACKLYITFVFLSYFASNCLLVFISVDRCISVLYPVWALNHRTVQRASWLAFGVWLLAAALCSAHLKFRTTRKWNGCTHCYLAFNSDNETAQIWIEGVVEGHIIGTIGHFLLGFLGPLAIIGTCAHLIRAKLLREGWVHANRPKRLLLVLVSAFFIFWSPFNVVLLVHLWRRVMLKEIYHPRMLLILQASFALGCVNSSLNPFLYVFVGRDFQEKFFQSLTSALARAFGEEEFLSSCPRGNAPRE

This assay concerns the target Probable G-protein coupled receptor 32 (Homo sapiens) (UniProt O75388). Description: qHTS for Agonists of Human Resolvin D1 Receptor DRV1. Also: 0% is about no effect. The settings on record: CHO-K1 GPR32 beta-arrestin PathHunter luminescence, 90 min; at 76.9 µM; stronger effect = higher value; zero percent set by DMSO-only wells. The method in brief:
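Luminescent readout of beta-Gal complementation quantifies ligand-induced beta-arrestin association with GPR32 in CHO-K1 cells; 90 min compound incubation at 37 °C, detection 1 h at room temperature.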
In general terms: In qHTS, concentration-response curves come from the screen itself.
For the compound `O=S(=O)(c1cccc2c(I)cccc12)N1CCCNCC1`, the activation was inactive: 39.3%.
With `Cc1oc(-c2ccccc2)nc1Cn1c(=O)cc(-c2ccccc2)c2c(C)nn(C)c21` the figure was inactive: -15.8%; with `CCN(C(=O)Cn1cnc2c1c(=O)n(C)c(=O)n2C)c1ccccc1C`, inactive: 7.31%; with `Cc1ccc(NC(=O)c2cnc(SCC(=O)N3CCCc4ccccc43)n(C)c2=O)cc1C`, inactive: 3.77%.
For `CC(C)CN(CC(C)C)c1nnc(NC(=O)Nc2cccc(C(F)(F)F)c2)s1`, the activation was inactive: -9.84%.
Take `Cc1ccc2nc(Cl)c3cc(C(=O)N4CCCC(C)C4)sc3c2c1` (centres undefined): the activation is inactive: -20.4%.
With `CCn1c(=O)c2cc(C(=O)NCCc3ccc(OC)c(OC)c3)sc2c2ccccc21` the figure was inactive: 21.3%; with `CCOc1ccc(CNC(=O)c2ccc(Sc3ccc(C)cc3)c(N)c2)cc1OC`, inactive: -21%.
With `COc1ccc(-c2cc(C(=O)Nc3c(C(=O)c4ccc(C)c(F)c4)oc4ccccc34)no2)cc1` the figure was inactive: -19.3%; with `COc1ccc(OCC(=O)Nc2ccc3c(c2)N(C)C(=O)c2ccccc2S3)cc1`, inactive: 1.86%.
For `COc1ccc(C(C)=O)cc1CSc1nc(NCc2ccc(Cl)cc2)c2ccccc2n1`, the activation is inactive: -15%.
For the compound `O=C(CCS(=O)(=O)c1nc(-c2ccc3c(c2)OCO3)cc(C(F)(F)F)n1)Nc1ccccc1C(F)(F)F`, the activation was inactive: -6.73%.
Take `COC(=O)Cn1c(SCCOc2ccccc2Cl)nc2ccccc21`: the activation was inactive: -5.21%.
`COC(=O)CSc1nnc(-c2cccc(O)c2)o1`: the activation was inactive: -9.04%.
With `CCc1ccccc1NC(=O)c1cc(S(=O)(=O)N2CCC(C)CC2)cn1C` the figure was inactive: -4.68%; with `COc1ccc(-c2cc(C(F)(F)F)n3nc(C(=O)Nc4cccc(Cl)c4Cl)cc3n2)cc1OC`, inactive: 2.89%; with `CC1=C(C(=O)Nc2ccc(C)cc2C)C(c2cc(Br)ccc2F)n2ncc(C(=O)Nc3ccc(C)cc3)c2N1` (centres undefined), inactive: -21.6%.
For `CCOC(=O)c1cc(-c2ccc(C)cc2)n(CC(=O)Nc2cc(C)ccc2C)c1C`, the activation is inactive: -1.96%.
With `CCC1CN(C(=O)N2CCC(C(=O)NCc3ccccc3F)CC2)c2ccccc2O1` (centres undefined), the activation is inactive: -7.7%.
As for `O=C(Nc1ccc(C(F)(F)F)cc1)C1(c2cccs2)CCOCC1`, the activation is inactive: 6.82%.
In the case of `CCCOC(=O)c1cccc(Nc2nc(C(=O)OCC)nc3ccccc23)c1`, the activation is active: 92.6%.
With `CC1CCCN(c2ncnc3c2nnn3C)C1` (centres undefined) the figure was inactive: -5.09%; with `COc1ccc(CNC(=O)Cc2ccc(NC(=O)N3CCCCc4ccccc43)cc2)cc1`, inactive: -8.85%; with `CCOc1ccc(NC(=O)c2cc(S(=O)(=O)N3CCC(C)CC3)cn2C)cc1`, inactive: 23.8%.
The same measure for `CC(Oc1ccccc1F)C(=O)NCC1(N2CCOCC2)CCCCC1` (centres undefined): inactive: -18.4%; for `Cc1ccc(NC(=O)c2c(C)oc3ncnc(N4CCCCC4)c23)c(C)c1`: inactive: -22.5%.
With `Cc1cc(C)cc(NC(=O)c2cc(S(=O)(=O)N3CCCCC3)c[nH]2)c1` the figure was inactive: -6.43%.
As for `CC(C)(C)C(=O)OCOP(=O)(COCCn1cnc2c(N)ncnc21)OCOC(=O)C(C)(C)C`, the activation is inactive: -0.287%.
With `CCc1ccc(NC(=O)c2sc3nc(C)cc(C)c3c2NC(=O)c2ccccc2)cc1`, the activation is inactive: -0.593%.
As for `COc1ccc(CNC(=O)C2CCN(c3nnc(C)c4c(C)n(-c5ccc(C)cc5)nc34)CC2)cc1`, the activation was inactive: 1.02%.
The same measure for `Cc1ccccc1NC(=O)C1CCN(S(=O)(=O)c2cccc3nonc23)CC1`: inactive: -2%; for `COc1ccc(OC)c(-c2cc(C(=O)NCc3ccc(Cl)cc3)no2)c1`: inactive: 4.2%.
For `Cc1ccc(-c2nn3c(C)nnc3c3ccccc23)cc1S(=O)(=O)NC(C)(C)CO`, the activation was inactive: -13.3%.
`COc1cccc(CNC(=O)Nc2ccc3c(c2)N(C)C(=O)c2ccccc2S3)c1`: the activation is inactive: -12.2%.
Turning to `CCOc1ccc(N(C)S(=O)(=O)c2cc(-c3cnc(C)o3)ccc2OC)cc1`, the activation was inactive: -20.7%.
With `O=C(Nc1nnc2n1CCS2)c1cc(C(F)(F)F)cc(C(F)(F)F)c1`, the activation is inactive: -6.96%.
In the case of `Cc1ccc(C)c(NC(=O)Cn2cc(S(=O)(=O)c3ccc(F)cc3)c(=O)c3cc(F)ccc32)c1`, the activation was inactive: 8.78%.
With `CN(C)S(=O)(=O)c1ccc2c(c1)N(CC(=O)N1CCC(C(N)=O)CC1)CCS2` the figure was inactive: 5.24%.
In the case of `COc1ccc(/C=C/C(=O)Nc2cccc(F)c2)cc1`, the activation was inactive: 39.1%.
The same measure for `CCOC(=O)C1CCCN(S(=O)(=O)c2cc(Br)cc3c2N(C(=O)CC)CC3)C1` (centres undefined): inactive: -1.61%; for `CCOc1ccc(C2c3[nH]c4ccccc4c3CCN2C(=O)CCC2CCCC2)cc1` (centres undefined): inactive: -33.9%; for `CCN(CCCNC(=O)CN1N=C(c2ccc(C)cc2)CCC1=O)c1ccccc1`: inactive: -29.9%.
For the compound `O=c1cc(-c2ccccc2)nc(SCc2nc(-c3cccc(C(F)(F)F)c3)no2)[nH]1`, the activation was inactive: 1.72%.
With `Cc1nn(-c2ccc(N3CCCCC3)nn2)c(C)c1CCC(=O)Nc1cccc(F)c1` the figure was inactive: 11.7%; with `Cc1ccn2c(=O)c(NC(=O)c3cccc([N+](=O)[O-])c3C)c(C)nc2c1`, inactive: -12.4%; with `Fc1ccc(-n2ncc3c(NCCCc4ccccc4)ncnc32)cc1`, inactive: 41.1%.
With `Cc1ccc(COC(=O)c2ccc(-c3nnn(Cc4ccc(C)cc4)n3)cc2)cc1` the figure was inactive: 6.64%; with `CC(=O)C(Sc1nc(-c2ccccc2Cl)nc2c1c(=O)n(C)c(=O)n2C)C(=O)N(C)C` (centres undefined), inactive: -22.2%.
On to `CCCCN(CC)C(=O)Cn1cc2c(n1)-c1c(oc(C(=O)N3CCCC3)c1C)CC2`, for which the activation was inactive: -9.92%.
On to `CN1CCC(=C2c3ccccc3CC(=O)c3sccc32)CC1`, for which the activation was inactive: -9.33% and inactive: -17.1%.
The same measure for `CCC(=O)N1CCc2cc(S(=O)(=O)NC(CC(C)C)C(=O)NCc3cccc(OC)c3)ccc21` (centres undefined): inactive: -7.47%; for `COc1cccc(C(=O)c2cn(CC(=O)Nc3ccc4c(c3)OCCO4)c3nc(C)ccc3c2=O)c1`: inactive: -14.4%; for `Cc1ccc(NC(=O)NCc2c(-n3cccc3)sc3c2CCCC3)c(Cl)c1`: inactive: -3.17%.
On to `Cc1ccc(CNC(=O)CCCn2nc(C)n3c(cc4sccc43)c2=O)cc1`, for which the activation was inactive: -10.1%.
As to `Cc1ccc(CNC(=O)c2cn(C)c3ccc(S(=O)(=O)N4CCC(C)CC4)cc3c2=O)cc1`, the activation is inactive: 9.2%.
With `CCN(Cc1ccccc1)S(=O)(=O)c1ccc(F)c(C(=O)Nc2ccc(C(C)C)cc2)c1` the figure was inactive: -14.7%; with `Cc1cccc(C)c1NC(=O)c1cc2sccc2n1Cc1ccc(F)cc1`, inactive: 33%; with `COc1cc(NC(=O)C2CCN(S(=O)(=O)c3c(C)noc3/C=C/c3c(C)cc(C)cc3C)CC2)cc(OC)c1`, inactive: -8.91%.
With `COc1ccc(OC)c(CNc2ncc(-c3ccc(Cl)cc3)n2C)c1`, the activation was inactive: -71.1%.
With `CCOC(=O)c1cccc(NC(=O)NC2COc3ccccc3C2)c1` (centres undefined) the figure was inactive: 22.4%.
In the case of `Cc1ccccc1CN1C(=O)c2ccccc2Sc2ccc(C(=O)NCCCN3CCOCC3)cc21`, the activation is inactive: -23.5%.
`O=C(NCCCc1ccccc1)c1ccc2c(c1)sc1nc(-c3ccc(F)cc3)cn12`: the activation is inactive: -7.93%.
The same measure for `COc1ccccc1N1CCN(CC(O)COc2cccc3ccccc23)CC1` (centres undefined): active: 96.7% and inactive: -23.8%; for `CC(=O)c1ccc(S(=O)(=O)Nc2cccc(-c3ccc(N4CCCC4)nn3)c2)cc1`: inactive: -17.4%; for `CCOc1ccc(CC(=O)NCc2ccc3c(c2)CCN3C(=O)c2ccc(F)cc2)cc1OCC`: inactive: -7.87%.
The same measure for `Cc1ccc(Sc2c(C)nn(-c3ccccc3)c2OC(=O)CC(C)C)cc1`: inactive: -16.4%.
The same measure for `CN1CCCC(CC2c3ccccc3Sc3ccccc32)C1` (centres undefined): inactive: 15.7%; for `CCOc1ccc(NC(=O)Cn2cc(C(=O)c3ccccc3)c(=O)c3cc(OC)ccc32)cc1`: inactive: -9.54%; for `O=C(Cc1ccc(F)cc1)NCCc1csc2nc(-c3ccc(Cl)cc3)nn12`: inactive: 12.6%.
Turning to `COC(=O)c1cc(NC(=O)CCc2c(C)nc3nc(C)nn3c2C)cc(C(=O)OC)c1`, the activation was inactive: 4.52%.
`CCN1C(=O)c2ccccc2S(=O)c2ccc(C(=O)N3CCN(c4cccc(Cl)c4)CC3)cc21` (centres undefined): the activation was inactive: -14.9%.
In the case of `CCCCn1c(SCc2ccccc2C#N)nc2c(sc3ccccc32)c1=O`, the activation was inactive: 2.08%.
For `CC1=C(C(=O)Nc2ccccc2C)C(c2ccc[nH]2)n2ncnc2N1` (centres undefined), the activation is inactive: -0.838%.
With `Cc1ccc(-n2ncc3c(=O)n(Cc4cccc(C(F)(F)F)c4)cnc32)cc1C` the figure was inactive: -8.75%; with `Cc1cccc(CC(=O)Nc2cccc(-c3cn4cccnc4n3)c2)c1`, inactive: 22.8%; with `CCOC(=O)Cn1c(=O)cc(C)c2c(C)nn(-c3cccc(F)c3)c21`, inactive: -16.5%.
With `Cc1ccc2c(c1)-c1onc(C(=O)N(C)c3ccc(F)cc3)c1CO2`, the activation was inactive: -6.71%.
Consider `CCc1ccc(S(=O)(=O)Nc2ccc3oc(C)c(C(=O)OCCOC)c3c2)cc1`, for which the activation is active: 64.4%.
The same measure for `COc1ccc(CNC(=O)C2CCN(S(=O)(=O)Cc3ccccc3)CC2)cc1`: inactive: 26.8%; for `Cc1cccc(NC(=O)c2cc3c(C)nn(-c4ccccc4)c3s2)c1`: inactive: -41.7%.
For the compound `CCOC(=O)c1[nH]c(C)c(C(=O)NCc2ccccc2Cl)c1C`, the activation was inactive: 7.14%.
The same measure for `O=C(NCc1ccc2c(c1)CCN2C(=O)c1ccncc1)c1cccc(F)c1`: inactive: -10.5%.
The same measure for `CCCCN(c1ccccc1)S(=O)(=O)c1cc2c3c(c1)C(C)C(=O)N3CCC2` (centres undefined): inactive: 1.17%.
With `COc1ccc(NC(=O)c2ccc(-c3nc(CSc4ccccc4)c(C)o3)cc2)c(OC)c1` the figure was inactive: 9.73%.
